Some of the results follow. The full chains were built here from the parent and the listed change. Inactive controls read about 0.05.
B1: TEV protease; numbered along this chain (parent)
chain: MGESLFKGPRDYNPISSSICHLTNESDGHTTSLYGIGFGPFIITNKHLFRRNNGTLVVQSLHGVFKVKDTTTLQQHLVDGRDMIIIRMPKDFPPFPQKLKFREPQREERICLVTTNFQTKSMSSMVSDTSCTFPSGDGIFWKHWIQTKDGQCGSPLVSTRDGFIVGIHSASNFTNTNNYFTSVPKNFMELLTNQEAQQWVSGWRLNADSVLWGGHKVFMVKPEEPFQPVKEATQL

Variants of: B1
Test: raw area under fraction-flipped curve 0-4 h after induction (AUC4h, not background-subtracted), DNA-recorder readout of cleavage of the substrate (dimensionless); higher = more cleavage of the substrate by the protease variant
Conditions: temperature: 34 °C; time window: 0-4 h after rhamnose induction
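Further: Bxb1 expression induced with 0.2% (w/v) L-rhamnose at OD600 near 0.5, cultures sampled hourly, flipped fraction per protease–substrate barcode pair counted by paired-end Illumina sequencing.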

Variant | area with substrate ENLYDQS | area with substrate ENLYEQS | area with substrate ENLYGQS | area with substrate ENLYHQS | area with substrate ENLYIQS | area with substrate ENLYLQS | area with substrate ENLYMQS | area with substrate ENLYNQS | area with substrate ENLYQQS | area with substrate ENLYRQS | area with substrate ENLYSQS | area with substrate ENLYVQS | area with substrate ENLYYQS | area with substrate ENLYKQS | area with substrate ENLYPQS | area with substrate ENLYTQS | area with substrate ENLYWQS
MGESLFKGPRDYNPISSSICHLTNESDGHTTSLYGIGFGPFIITNKHLFRRNNGTLVVQSLHGVFKVKDTTTLQQHLVDGRDMIIIRMPKDFPPFPQKLKFREPQREERICLVTTNFQTKSMSSMVSDTSCTFPSGDGIFWKHWIQTKKGQCGSPLVSTRDGFIVGIHSASNFTNTNNYFTSVPKNFMELLTNQEAQQWVSGWRLNADSVLWGGHKVFMVKPEEPFQPVKEATQL [D149K] | 0.0308 | 0.0566 | 0.0576 | 0.063 | 0.0809 | 0.0649 | 0.0808 | 0.0577 | 0.0445 | 0.0448 | 0.0742 | 0.0841 | 0.055 | – | – | – | –
MGESLFKGPRDYNPISSSICHLTNESDGHTTSLYGIGFGPFIITNKHLFRRNNGTLVVQSLHGVFKVKDTTTLQQHLVDGRDMIIIRMPKDFPPFPQKLKFREPQREERICLVTTNFQTKSMVSMVSDTSCTFPSGDGIFWKHWIQTKDGQCGSPLVSTRDGFIVGIHSASNFTNTNNYFTSVPKNFMELLTNQEAQQWVSGWRLNADSVLWGGHKVFMVKPEEPFQPVKEATQL [S123V] | 0.0793 | 0.0817 | 0.0601 | 0.074 | 0.161 | – | 0.0977 | 0.0657 | 0.0633 | 0.057 | 0.0733 | 0.121 | 0.0093 | 0.0802 | 0.074 | 0.0961 | 0.0837
MGESLFKGPRDYNPISSSICHLTNESDGHTTSLYGIGFGPFIITNKHLFRRNNGTLVVQSLHGVFKVKDTTTLQQHLVDGRDMIIIRMPKDFPPFPQKLKFREPQREERICLVTTNFQTKSMSSMVSDTSCTFPSGDGIFWKHWIQTKDGQCGSPLVSTRDGFIVGIHSASNFTNTNNYFTSVPKNFMELLTNQEAQQWVSGWRLNADSVLWGGHKVFMVKQEEPFQPVKEATQL [P222Q] | 0.0428 | 0.0689 | 0.0743 | 0.0573 | 0.114 | – | – | 0.0601 | 0.0579 | 0.0604 | 0.0541 | 0.106 | 0.0623 | 0.0693 | 0.0686 | 0.0726 | 0.0779
MGESLFKGPRDYNPISSSICHLTNESDGHTTSLYGIGFGPFIITNKHLFRRNNGTLVVQSLHGVFKVKDTTTLQQHLVDGRDMIMIRMPKDFPPFPQKLKFREPQREERICLVTTNFQTKSMSSMVSDTSCTFPSGDGIFWKHWIQTKDGQCGSPLVSTRDGFIVGIHSASNFTNTNNYFTSVPKNFMELLTNQEAQQWVSGWRLNADSVLWGGHKVFMVKPEEPFQPVKEATQL [I85M] | 0.0589 | 0.0588 | 0.0615 | 0.0605 | – | – | 0.0819 | 0.0633 | 0.0672 | 0.0534 | 0.0654 | – | 0.0709 | 0.0564 | 0.0702 | – | –
MGESLFKGPRDYNPISSSICHLTNESDGHTTSLYGIGFGPFIITNKHLFRRNNGTLVVQSLHGVFKVKDTTTLQQHLVDGRDMIIIRMPKDFPPFPQKLKFREPQREERINLVTTNFQTKSMSSMVSDTSCTFPSGDGIFWKHWIQTKDGQCGSPLVSTRDGFIVGIHSASNFTNTNNYFTSVPKNFMELLTNQEAQQWVSGWRLNADSVLWGGHKVFMVKPEEPFQPVKEATQL [C111N] | 0.0846 | 0.0739 | 0.0372 | 0.0414 | 0.119 | – | 0.0798 | 0.0742 | 0.0677 | – | – | – | – | 0.0625 | – | – | –
MGESLFKGPRDYNPISSSICHLTNESDGHTTSLYGIGFGPFIITNKHLFRRNNGTLVVQSLHGVFKVKDTTTLQQHLVDGRDMIIIRMPKDFPPFPQKLKFREPQREERICLVTTNFQTKSMSSMVSDTSCTFPSGDGIFWKHWIQTKDGQCGSPIVSTRDGFIVGIHSASNFTNTNNYFTSVPKNFMELLTNQEAQQWVSGWRLNADSVLWGGHKVFMVKPEEPFQPVKEATQL [L156I] | 0.0675 | – | – | 0.0577 | 0.143 | 0.0368 | 0.0892 | – | 0.0668 | 0.0985 | – | 0.11 | 0.0637 | 0.0746 | 0.088 | – | 0.0903
MGESLFKGPRDYNPISSSICHLTNESDGHTTSLYGIGFGPFIITNKHLFRRNNGTLVVQSLHGVFKVKDTTTLQQHLVDGRDMIIIRMPKDFPPFPQKLKFREPQREERICLVTTNFQTKSMSQMVSDTSCTFPSGDGIFWKHWIQTKDGQCGSPLVSTRDGFIVGIHSASNFTNTNNYFTSVPKNFMELLTNQEAQQWVSGWRLNADSVLWGGHKVFMVKPEEPFQPVKEATQL [S124Q] | 0.0538 | 0.0727 | 0.0654 | – | 0.148 | 0.0771 | 0.0673 | 0.0556 | – | – | 0.0808 | – | 0.0761 | 0.0607 | 0.0739 | – | 0.0945
MGESLFKGPRDYNPISSSICHLTNESDGHTTSLYGIGFGPFIITNKHLFRRNNGTLVVQSLHGVFKVKDTTTLQQHLVDGRDMIIIRMPKDFPPFPQKLKFREPQREERICLVTTNFQTKSMSSMVSDTQCTFPSGDGIFWKHWIQTKDGQCGSPLVSTRDGFIVGIHSASNFTNTNNYFTSVPKNFMELLTNQEAQQWVSGWRLNADSVLWGGHKVFMVKPEEPFQPVKEATQL [S130Q] | 0.0729 | 0.0744 | – | 0.0729 | 0.117 | – | – | 0.06 | – | – | – | – | 0.0783 | 0.0531 | 0.0781 | – | 0.0786
MGESLFKGPRDYNPISSSICHLTNESDGHTTSLYGIGFGPFIITNKHLFRRNNGTLVVQSLHGVFKVKDTTTLQQHLVDGRDMIIKRMPKDFPPFPQKLKFREPQREERICLVTTNFQTKSMSSMVSDTSCTFPSGDGIFWKHWIQTKDGQCGSPLVSTRDGFIVGIHSASNFTNTNNYFTSVPKNFMELLTNQEAQQWVSGWRLNADSVLWGGHKVFMVKPEEPFQPVKEATQL [I86K] | 0.0362 | 0.0264 | 0.0361 | 0.0391 | 0.0393 | – | 0.0409 | 0.0396 | – | 0.0274 | 0.0363 | – | – | – | – | – | 0.0418

Reference: the supplement of paper PMC12217912
